From publication PMC4336329 (PLoS ONE, 2015)
Among all 310,000 compounds or so, about 14,000 (4.5%) showed an effect of 50% or more. The effect is printed as a negative number. The list shows a part of the results.

target: human ether-à-go-go-related gene (hERG) potassium channel (human, UniProt Q12809); assay: primary screen, population patch clamp on CHO cells stably expressing hERG
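Note: peak tail current of the secondary pulse compared with the same well before compound.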

Sequence of human ether-à-go-go-related gene (hERG) potassium channel (Q12809 whole entry, looked up): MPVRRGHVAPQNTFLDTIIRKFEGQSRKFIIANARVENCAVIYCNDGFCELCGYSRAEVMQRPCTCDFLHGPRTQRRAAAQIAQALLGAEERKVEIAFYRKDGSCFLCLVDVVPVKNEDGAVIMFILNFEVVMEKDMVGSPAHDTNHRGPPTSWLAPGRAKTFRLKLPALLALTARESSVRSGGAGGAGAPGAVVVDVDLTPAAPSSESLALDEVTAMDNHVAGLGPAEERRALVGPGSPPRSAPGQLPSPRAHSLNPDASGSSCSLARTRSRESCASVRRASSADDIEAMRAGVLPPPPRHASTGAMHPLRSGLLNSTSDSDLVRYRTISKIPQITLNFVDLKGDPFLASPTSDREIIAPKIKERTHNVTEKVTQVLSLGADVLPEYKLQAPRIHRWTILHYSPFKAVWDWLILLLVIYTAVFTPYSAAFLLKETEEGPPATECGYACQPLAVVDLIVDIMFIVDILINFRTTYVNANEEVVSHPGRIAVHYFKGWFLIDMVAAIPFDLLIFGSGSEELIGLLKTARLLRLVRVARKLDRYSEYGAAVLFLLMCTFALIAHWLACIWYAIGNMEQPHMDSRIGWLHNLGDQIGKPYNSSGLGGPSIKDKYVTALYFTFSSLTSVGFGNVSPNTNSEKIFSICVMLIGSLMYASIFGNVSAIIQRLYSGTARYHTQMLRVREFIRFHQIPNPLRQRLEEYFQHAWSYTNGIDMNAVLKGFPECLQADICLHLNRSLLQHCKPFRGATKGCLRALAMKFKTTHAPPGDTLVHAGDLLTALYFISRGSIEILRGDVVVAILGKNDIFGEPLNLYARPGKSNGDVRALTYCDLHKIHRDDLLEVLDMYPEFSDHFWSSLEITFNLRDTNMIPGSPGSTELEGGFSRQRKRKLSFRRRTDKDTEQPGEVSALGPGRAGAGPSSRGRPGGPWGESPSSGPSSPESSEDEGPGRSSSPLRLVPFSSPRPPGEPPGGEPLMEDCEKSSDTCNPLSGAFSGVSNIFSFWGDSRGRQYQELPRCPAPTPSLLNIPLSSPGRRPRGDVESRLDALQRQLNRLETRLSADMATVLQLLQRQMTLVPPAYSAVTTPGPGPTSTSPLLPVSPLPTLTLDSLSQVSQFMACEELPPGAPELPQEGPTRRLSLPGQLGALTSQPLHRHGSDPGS

Point of comparison: `Cc1oc2c(CN(C)C)c(O)ccc2c(=O)c1-c1ccc2ccccc2n1`, “hERG current change (%, negative = inhibition) at 10uM” value -7.18%. Against it:
- COc1ccc(S(=O)(=O)N2CCN(C(=O)c3cc4c(s3)CCCC4)CC2)cc1 — lower, -16.2%
- CCOC(=O)N1CCN(C(=O)c2ccc(-n3c(=S)[nH]c4ccccc4c3=O)cc2)CC1 — higher, 9.37%
- CC1CCCCN1C(=O)c1cnn2c(C(F)(F)F)cc(-c3ccco3)nc12 (stereo not drawn) — lower, -10.6%
- Cn1c(SCC(=O)N2CCOCC2)nnc1-c1ccc2ncccc2c1 — higher, 15.4%
- O=C(CN1CCN(C(c2ccccc2)c2ccccc2)CC1)NCc1ccccc1 — higher, 8.58%
- O=C(NCC1CCCO1)c1ccccc1OCc1ccc(F)cc1 (stereo not drawn) — lower, -12.8%
- Cc1ccc(NC(CC(=O)c2ccccc2)C(=O)O)cc1Cl (stereo not drawn) — higher, 16.4%
- COc1ccc(N(CC(=O)Nc2cccc(C(C)=O)c2)S(C)(=O)=O)cc1OC — lower, -10.5%
- Cc1ccc(S(=O)(=O)N2CCN(C(=O)COC(=O)c3ccccn3)CC2)c(C)c1 — higher, 7.37%
- COc1ccc(CCN2C(=O)C(O)=C(C(C)=O)C2c2ccccc2OC)cc1OC (stereo not drawn) — higher, 19.4%
- COc1ccc(OC)c(CN2CCSCC2)c1 — higher, 9.69%
- CC(=O)Nc1ccc(S(=O)(=O)NC2CCSc3ccccc32)cc1 (stereo not drawn) — higher, 3.02%
- CN1C(=O)N(CC(=O)Nc2sccc2C(N)=O)C(=O)C12CCCCC2 — higher, 1.58%
- O=C(Nc1cccc2c1CCCC2)c1ccccc1Cl — higher, 13.2%
- COc1cccc(CN2CCN(Cc3ccc4cccc(F)c4n3)CC2CCO)c1 (stereo not drawn) — lower, -39.9%
- O=C(O)Cn1cc(/C=C2/SC(=O)N(CC(=O)N3CCCCCC3)C2=O)c2ccccc21 — higher, 17.1%
- O=S(=O)(c1ccccc1)N1CCN(Cc2cc3c(cc2Br)OCCO3)CC1 — higher, 2.87%
- O=C(c1ccccc1/S(=N/S(=O)(=O)c1ccccc1)N1CCOCC1)N1CCOCC1 (stereo not drawn) — higher, -0.047%
- Cl.O=C(CNC1CCCCC1)NCC1(c2ccccc2)CCCC1 — higher, -0.949%
- CSc1nc2ccc(S(=O)(=O)N3CCCC3)cc2s1 — higher, 2.69%
- Cn1c(C(C#N)/C(=N\S(=O)(=O)c2cccs2)c2ccccc2)nc2ccccc21 (stereo not drawn) — higher, 2.46%
- Cc1c(C(=O)N2CCN(c3ccccn3)CC2)oc2c(F)cccc12 — lower, -26.7%
- CC1(C)CC(=O)C(C=NCCN2CCN(C(=S)Nc3ccccc3)CC2)=C(O)C1 — lower, -11.3%
- O=C(Cc1csc(Nc2nc(=S)[nH]c3ccccc23)n1)NCc1ccccc1Cl — higher, 16.2%
- CCN(CC)C(=O)OCc1c(-c2ccccc2)ncc2ccccc12 — lower, -25.5%
- CCOc1ccccc1NC(=O)c1cccc2c1C(=O)N(CCOC)C2 — lower, -48%
- CCCCOc1ccc(S(=O)(=O)NNC(=O)c2cc3ccccc3o2)cc1 — higher, -3.43%
- O=C(CSc1nccn1Cc1ccc(F)cc1)Nc1ccc(F)cc1F — higher, 6%
- O=S(=O)(NN=C1CCCCCCC1)c1ccc(Br)cc1 — higher, 4.3%
- COC(=O)c1ccc(CSc2nnc(-c3ccncc3)o2)o1 — higher, 0.0203%
- O=C(CSc1nnc(NC(=O)C2CCC2)s1)Nc1ccc(N2CCOCC2)cc1 — higher, 13.4%
- CCOC(=O)c1cc2c(C)n(-c3ccc(OCC)cc3)c(C)c2ccc1=O — lower, -13.2%
- CCOC(=O)c1sc2ccc(S(=O)(=O)N3CCCCC3)cc2c1N — higher, 14.2%
- O=C(NC1CCS(=O)(=O)C1)c1cc(-c2ccccc2)nc2ccccc12 (stereo not drawn) — higher, 13.6%
- CC1CCN(CCCCOc2ccccc2-c2ccccc2)CC1.O=C(O)C(=O)O — lower, -72.6%
- COC(=O)Cc1[nH]c(=O)[nH]c1C(=O)OC — higher, 2.56%
- Cc1ccc(N(CC(=O)NCc2ccc(F)cc2)C(=O)c2csnn2)c(C)c1 — lower, -34%
- Cc1ccccc1NS(=O)(=O)c1ccc(NC(=O)N2CCCCC2)cc1 — higher, -1.35%
- NC(=O)C1CCN(C(=O)CCNS(=O)(=O)c2cc(Br)cnc2N)CC1 — higher, 14.7%
- CCCn1nnc(NC(=O)COc2ccccc2Cl)n1 — higher, 4.35%
- CC(C1CC1)N(Cc1ccccc1)C(=O)NC(=O)c1ccccc1 (stereo not drawn) — higher, 3.36%
- CCSCCC(NC1=CC(=O)CC(C)(C)C1)C(=O)O (stereo not drawn) — higher, 3.86%
- Cc1cccc(C(C)C)c1NC(=O)c1cccnc1 — higher, 4.82%
- OCCNCC(O)Cn1ccc2ccccc21 (stereo not drawn) — higher, -1.13%
- CN(C)C(=O)Oc1cccc(NC(=O)c2ccccc2C(F)(F)F)c1 — higher, 2.07%
- CCc1noc(C)c1C(=O)Nc1sc(C(=O)N(C)C)c(C)c1C#N — higher, 18.4%
- Cc1nc2ccc(C(=O)c3ccccc3)cc2[nH]1 — higher, 9.07%
- CCC/C([O-])=N\S(=O)(=O)c1ccc(N=NN(C)C)cc1.[K+] — higher, 11.7%
- Cc1cc(C)nc(NC(=O)c2ccc(Br)cc2)n1 — higher, 11.2%
- O=C(Nc1cccc(NC(=O)c2nccc3ccccc23)c1)c1ccco1 — higher, 10.9%
- Nc1ccc(C(=O)N/N=C/c2cn(Cc3ccccc3)c3ccccc23)cc1 — higher, 18.5%
- COc1ccc(-c2nc(CS(=O)(=O)CC(=O)NCc3ccccc3OC)c(C)o2)cc1 — higher, -1.62%
- CCc1cccc(C)c1NC(=S)N(CCN(C)C)C(C)c1ccco1 (stereo not drawn) — lower, -16.8%
- COc1ccc(/C=N/NC(=O)c2nc(-c3ccccc3)cc(-c3ccccc3)n2)cc1 — higher, -2.68%
- COc1ccc(/C(O)=C2/C(=O)C(=O)N(CCN3CCOCC3)C2c2ccccn2)cc1OC (stereo not drawn) — lower, -10%
- CC(C(=O)Nc1ccc(C(N)=O)cc1)N1C(=O)c2ccccc2S1(=O)=O (stereo not drawn) — higher, 1.35%
